# Assay results reported in PubChem BioAssay AID1346428 (National Center for Advancing Translational Sciences (NCATS), 2018).
# Several values for one entry are separate records, joined by “and”; a condition that tells them apart may be missing. Equal values may be shown once. The whole screen tested about 48,000 compounds, of which about 1,200 (2.5%) were called active. Not shown: some 2% with an inconclusive outcome.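 The calls were made as follows: active = activation of at least 60% and not above a set upper limit (about 1 call in 100 departs from these limits); inconclusive = activation of 40% to 60%, or above that upper limit; inactive = activation under 40%.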 The list shows a part of the results.
# Target: Probable G-protein coupled receptor 32 (Homo sapiens) (UniProt O75388)
# Experiment: qHTS for Agonists of Human Resolvin D1 Receptor DRV1; also: 0% is about no effect
# Details: CHO-K1 GPR32 beta-arrestin PathHunter luminescence, 90 min; at 76.9 µM; active compounds read high; zero percent set by DMSO-only wells
# How it was run: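 Step 1: seed CHO-K1 GPR32 beta-arrestin cells, 2,500/well, overnight at 37 °C. Step 2: add compounds, 90 min at 37 °C. Step 3: detection reagent, 1 h ambient, then luminescence.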
# Sequence of UniProt O75388 (O75388 whole entry, looked up): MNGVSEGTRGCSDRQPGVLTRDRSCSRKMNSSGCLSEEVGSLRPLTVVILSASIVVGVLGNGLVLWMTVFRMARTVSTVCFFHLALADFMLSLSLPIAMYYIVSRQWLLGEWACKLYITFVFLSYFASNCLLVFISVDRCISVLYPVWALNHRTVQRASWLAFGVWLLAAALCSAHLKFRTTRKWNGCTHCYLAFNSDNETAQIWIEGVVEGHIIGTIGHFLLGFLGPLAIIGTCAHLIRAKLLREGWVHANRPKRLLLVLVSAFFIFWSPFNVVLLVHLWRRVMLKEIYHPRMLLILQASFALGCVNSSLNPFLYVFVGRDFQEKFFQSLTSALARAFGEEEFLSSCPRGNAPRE
row,SMILES,activation
1,Cc1ccc(Cn2c(=O)n(CC3CCC(C(=O)N4CCOCC4)CC3)c(=O)c3sccc32)cc1 (centres undefined),inactive: 0.432%
2,O=C(CC1Oc2ccc(Cl)cc2NC1=O)NCc1ccccc1 (centres undefined),inactive: -14.9%
3,CCOC(=O)CC(NC(=O)Cn1nnc(-c2ccc(C(F)(F)F)cc2)n1)c1ccc(C)cc1 (centres undefined),inactive: 39.1%
4,CCOC(=O)c1cccc(NC(=O)CCn2nc(C)c3c(C)n(-c4ccccc4)nc3c2=O)c1,inactive: -13.3%
5,COCCCNC(=O)C1CCCN(S(=O)(=O)c2ccc3c(c2)oc(=O)n3C)C1 (centres undefined),inactive: -28.4%
6,CC1=Nc2cc(C(=O)NC3CCCC3)ccc2Sc2ccc(Br)cc21,inactive: -9.71%
7,Cc1cc2c(cc1S(=O)(=O)N(C)CC(=O)Nc1cccc(C#N)c1)OCC(=O)N2,inactive: 9.8%
8,COc1ccccc1C(=O)NCC1(N2CCN(C)CC2)CCCCC1,inactive: -6.3%
9,Cc1ccc(C)c(NC(=O)N2CCC(N3CCN(Cc4ccc(F)cc4)C(=O)C3=O)CC2)c1,inactive: -14.2%
10,COc1ccccc1CNC(=O)c1ccc(CN2CC(=O)N3CCCCC3C2=O)cc1 (centres undefined),inactive: -19.9%
11,CCN(CC)c1ccc(NC(=O)CN2CCN(CC(=O)Nc3ccccc3OC)CC2)cc1,inactive: -14.4%
12,CCOCCCn1c(SCC(=O)NCCCOC)nc2c(sc3ccccc32)c1=O,inactive: 23.2%
13,Cc1c(NC(=O)c2ccccc2)cc(C(C)C)c(O)c1S(=O)(=O)c1ccc(Cl)cc1,inactive: -26.6%
14,Fc1ccc(Nc2ncnc3c2nc2n3CCCC2)cc1,inactive: 4.18%
15,Cc1ccccc1Nc1cc(C(=O)NC2CCCCC2)c2ccccc2n1,inactive: 1.23%
16,Cn1c(=O)oc2cc(S(=O)(=O)N3CCCC(C(=O)N4CCN(c5ccccc5F)CC4)C3)ccc21 (centres undefined),inactive: 17.7%
17,CCOC(=O)N1CCc2c(sc3c2c(=O)n(-c2ccc(Cl)cc2)c(=O)n3Cc2cccc(C)c2)C1,inactive: -4.7%
18,CCOCCCNC(=O)c1c[nH]c2ccc(S(=O)(=O)Nc3cccc(Cl)c3C)cc2c1=O,active: 64.9%
19,Cc1ccc(C)c(NC(=O)C(Cc2ccccc2)N2Cc3ccccc3C2=O)c1 (centres undefined),inactive: -25.5%
20,Cc1ccc(CCNc2ncnc3onc(C)c23)cc1,active: 96.8%
21,COc1ccccc1N1CCN(S(=O)(=O)c2cc3[nH]c(=O)c(=O)[nH]c3cc2C)CC1,inactive: -13.3%

row,SMILES,activation
1,O=C(NCCS(=O)(=O)N1CCN(c2ccc(F)cc2)CC1)c1cc(=O)c2ccccc2o1,inactive: -14.3%
2,CCOc1ccc(CNC(=O)CCC(=O)N2CCSc3ccccc32)cc1,inactive: -8.53%
3,Cc1ccc2occ(CC(=O)N(Cc3ccc(N(C)C)cc3)C3CCS(=O)(=O)C3)c2c1 (centres undefined),inactive: -8.71%
4,CN(C)c1ccc(CNC(=O)c2ccc(NC(=O)c3nsc4ccccc34)cc2)cc1,inactive: -15.7%
5,COc1cccc(Cc2nc3ccccc3nc2SCC(=O)Nc2ccccc2F)c1,inactive: 2.55%
6,O=C(Cn1c(=O)n(-c2ccccc2)c(=O)c2c3c(sc21)CCCC3)Nc1cccc(F)c1,inactive: -18%
7,CCC1(c2ccccc2)C(=O)NCNC1=O,inactive: -12.6% and inactive: -2%
8,Cc1c(C(=O)NCc2ccccc2Cl)cccc1-n1cnc2cccnc21,inactive: 3.7%
9,Cc1cccc(CNC(=O)c2ccc3nc(-c4ccccc4)c(-c4ccccc4)nc3c2)c1,inactive: -5.06%
10,CCC12CN3CC(C)(CN(C1)C3c1c(C)n(C)c3ccccc13)C2=O (centres undefined),inactive: -6.75%
11,Cc1cccc(NC(=O)Cn2c(=O)n(CCc3ccccc3)c(=O)c3sc4ccccc4c32)c1,inactive: -6.04%
12,CC(C)C1N=C2c3ccccc3N=C(SCC(=O)NCc3ccc(F)cc3)N2C1=O (centres undefined),inactive: -5.55%
13,CCOC(=O)Cn1c(=O)n(C2CCCCC2)c2nc(-c3ccccc3Cl)nc(C(N)=O)c21,inactive: -21%
14,O=C(CSc1nc2c([nH]c3ccccc32)c(=O)n1-c1ccc(F)cc1)N1CCCc2ccccc21,inactive: -11.1%
15,Cc1cccc(C)c1OCc1nc2c3cnn(-c4ccccc4Br)c3ncn2n1,inactive: -4.73%
16,COc1cc(NC(=O)c2cc(C3CC3)nc3c2c(C)nn3-c2ccc(C)cc2)cc(OC)c1,inactive: -15.4%
17,Nc1c(-c2nc(-c3ccc(Cl)cc3)no2)nnn1-c1ccc(C(F)(F)F)c(Cl)c1,inactive: -1.17%
18,O=C(NC1CCCCC1)c1cc(Nc2ccccc2)nc2ccccc12,inactive: 3.13%
19,COC(=O)c1ccc(NC(=O)CCNS(=O)(=O)c2cccc3nsnc23)cc1,inactive: 1.92%
20,COc1ccc(-c2c(C)nn3c(-c4ccccc4)cc(-c4ccccc4)nc23)cc1OC,inactive: -12%
21,COc1ccc(CCN2C(=O)c3[nH]nc(-c4ccccc4O)c3C2c2ccc(O)c(OC)c2)cc1 (centres undefined),inactive: -0.509%

row,SMILES,activation
1,CCOC(=O)CC(NC(=O)c1cc2c(=O)n3cccc(C)c3nc2s1)c1ccc(OCC(C)C)c(OC)c1 (centres undefined),inactive: -2.32%
2,CCC(CC)C(=O)Nc1nnc2n1CCS2,inactive: -1.46%
3,CC(=O)N[C@H](C(=O)O)C(C)(C)SN=O,inactive: -1.72%
4,Cc1ccc(S(=O)(=O)N2CCCc3cc(NC(=O)c4ccccc4Cl)ccc32)cc1,inactive: -9.23%
5,CCN(CC)S(=O)(=O)c1ccc2c(c1)N(CC(=O)Nc1ccc(F)cc1)C(=O)CO2,inactive: -32.9%
6,COc1ccc(CCNC(=O)CCCCCn2c(SCC(N)=O)nc3cc4c(cc3c2=O)OCO4)cc1OC,inactive: -3.85%
7,Cc1ccc(C)c(N(C)C(=O)C2CCN(c3ncnc4c3nc3n4CCCCC3)CC2)c1,inactive: -6.61%
8,COc1ccc(NC(=O)N(Cc2nnc3n2CCCCC3)c2ccc(OC)c(Cl)c2)cc1,inactive: 17.3%
9,O=C(Nc1c(C(=O)c2ccc(F)cc2)oc2ccccc12)c1cc(-c2ccccc2)on1,inactive: 8.5%
10,Cc1ccc(CNCc2c(C(=O)O)c(C)n(Cc3ccc(C)cc3)c2C)cc1,inactive: 5.01%
11,Cn1cnc(S(=O)(=O)N2CCCC(C(=O)Nc3cccc(C#N)c3)C2)c1 (centres undefined),inactive: -9.45%
12,CCN(CC)S(=O)(=O)c1nnc(NC(=O)COc2cccc(C)c2)s1,inactive: 17.7%
13,COCCNC(=O)CSc1nc2ccccc2nc1Cc1ccc(C)cc1,inactive: -3.5%
14,COc1cccc(N2CCN(c3ccc4nnc(CCC(=O)O)n4n3)CC2)c1,inactive: 9.01%
15,CCOc1ccc(CNC(=O)c2ccc3nc(CC)c(CC)nc3c2)cc1OC,inactive: -0.894%
16,CCc1ccc(S(=O)(=O)c2c(C(=O)c3ccc(C)c(C)c3)cnc3ccccc23)cc1,inactive: -20.7%
17,COc1ccc(-c2nc3sc(CCNC(=O)C(C)(C)C)c(C)n3n2)cc1,inactive: 1.4%
18,CNC(=O)C1CCCN(c2nnc(C)c3c(C)n(-c4ccccc4)nc23)C1 (centres undefined),inactive: 2.5%
19,CCOCCCNC(=O)c1ccc(-c2nc(CS(=O)(=O)c3ccccc3)c(C)o2)cc1,inactive: -4.6%
20,O=C(O)CCc1ccc(-c2ccc(Br)cc2)n1-c1ccccc1O,inactive: -13.7%
21,CCOC(=O)C1CCN(c2cc3c(cc2NC(=O)c2ccccc2Cl)n(C)c(=O)n3C)CC1,inactive: -32.5%

row,SMILES,activation
1,CCOc1ccc2nc(N3CCCC(C(=O)NCCc4ccc(OC)cc4OC)C3)sc2c1 (centres undefined),inactive: -2.16%
2,CCOc1ccc(N2CC(c3nc4ccccc4n3CCOc3ccc(OC)cc3)CC2=O)cc1 (centres undefined),inactive: -9.22%
3,CC(C)Cc1nn2cc(-c3cccc(Br)c3)nc2s1,inactive: -19.7%
4,CCCCN(CC)CCNC(=O)Cn1cnc2sc(C)c(S(=O)(=O)N3CCN(c4ccccc4OC)CC3)c2c1=O,inactive: 6.13%
5,CCOc1cccc2sc(N(Cc3cccnc3)C(C)=O)nc12,inactive: -8.17%
6,Cc1cc2nc(-c3ccc(NC(=O)c4ccc(OCC(C)C)cc4)cc3)oc2cc1C,inactive: -12.2%
7,O=C(Nc1ccc(F)c(Cl)c1)c1cc(S(=O)(=O)NCc2ccc3c(c2)OCO3)ccc1F,inactive: -11.1%
8,O=C(NCCc1ccccc1)c1ccc(CSc2nc3cccnc3n2Cc2ccccc2)cc1,inactive: -0.928%
9,CC(NC(=O)CCc1cn(Cc2ccccc2Cl)c2ccccc12)c1ccccc1 (centres undefined),inactive: -31.7%
10,Cc1c(NC(=O)Nc2cccc(C(F)(F)F)c2)sc2nc3n(c(=O)c12)CCC(C)CC3 (centres undefined),inactive: 6.82%
11,COc1ccc(/C=C/c2nc(C#N)c(N3CCC(C(N)=O)CC3)o2)cc1OC,inactive: -8.77%
12,Cc1ccc(-c2nc(CS(=O)(=O)CC(=O)NC(C)CCc3ccccc3)c(C)o2)cc1 (centres undefined),inactive: 4.41%
13,CC(C)CN(c1ccccc1)S(=O)(=O)c1nnc(NC(=O)C2CCCCC2)s1,inactive: -20.9%
14,O=C(NCCO)C(=O)NCC(c1ccc2c(c1)OCO2)N1CCOCC1 (centres undefined),inactive: -5.56%
15,CN1CC(O)C(O)C(O)C1CO (centres undefined),inactive: 2.08%
16,CCOC(=O)c1nnc2c(-c3ccc(Cl)cc3)c(C)nn2c1N,inactive: -8.05%
17,CCc1ccccc1NC(=O)Cn1nnc(C(=O)NCc2ccco2)c1N,inactive: -4.54%
18,O=C(CCS(=O)(=O)c1ccccc1)N(Cc1cccnc1)c1nc2c(F)cccc2s1,inactive: -0.24%
19,COc1ccc(C(CC(=O)Nc2ccccn2)N2Cc3ccccc3C2=O)cc1OC (centres undefined),inactive: -7.78%
20,CCOC(=O)C1=C(CN(CC)Cc2ccccc2)NC(=O)NC1c1ccc(OC)cc1 (centres undefined),inactive: -15.9%
21,COC(=O)c1c(-c2ccc(Cl)cc2)noc1N1CCN(c2ccccc2F)CC1,inactive: 7.94%
